Values marked as one replicate rest on one cluster of the flow cell; about a third of the high ones do not repeat.

The test system of this data set is ATP. The experiment in a line: switch fluorescence ratio, 500 uM ATP over buffer (Cy3 cluster intensity, sum of 5 cycles each) (fold (ratio)); higher = stronger signal-on switching upon ATP binding; sequences stand for … in TCGTCGGCAGCGTCAGATGTGTATAAGAGACAGTTTTTTTTTTTTTTTTTTTTTTTTT…TC. To be noted: aptamer strand: ATP DNA aptamer (quencher-CACCTGGGGGAGTATTGCGGAGGAAGG + anchor), 100 nM annealed; ATP concentration: 500 uM; one replicate. The method, boiled down:
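Per cluster, summed Cy3 intensity from the target cycles was divided by that from the buffer cycles to give the fluorescence ratio, then averaged per switch-domain sequence. Clusters outside 100-1000 RFU were excluded. The Cy3-labelled switching-strand clusters, on a modified Illumina MiSeq flow-cell, were annealed to 100 nM quencher-labelled ATP aptamer and imaged in selection buffer, then after 15 min with 500 uM ATP at 22 °C, for five cycles with NaOH stripping and re-annealing between them.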
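Also: ATP exposure 15 min at 22 °C before imaging.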

Regarding AGTGGTTGGG, the switch fluorescence ratio amounted to 1.
For CGCGTATCGA the value was 0.989.
For GACCGACGC the value was 2.84; for CGCATGCTAC, 4.31; for TCTTGTACGG, 1.03.
For the sequence TAATTAGAGA, the switch fluorescence ratio is 0.948.
Next, TTGACTAAGC: 1.01; TAGGTTGGCC: 1.11; CCGCACTGTA: 2.01.
For GCCCACTTAA the value was 1.03; for CGCGGATTCG, 1.04.
In the case of ATAACAGCAG, the switch fluorescence ratio came to 0.988.
Next, TTTCAGGGG: 1.14; TTGTCAGTA: 1.
Take CAATTCCGTT: the switch fluorescence ratio was 0.999.
For ACCATATGTA the value was 1.01; for AGTCGTCGCC, 1.01; for TCGTTTCTGC, 1.08.
Consider TTATAGTTAC, for which the switch fluorescence ratio was 1.08.
Turning to TCGGTTACGT, the switch fluorescence ratio was 1.01.
As to TGGTTGGGT, the switch fluorescence ratio was 1.03.
For TGCTAGTCGA the value was 1.
For TCCAGAGACG the value was 0.996; for CTGATCCTTA, 0.988; for CTTCTAGCGG, 1.06.
On to ACGTCGGAAG, for which the switch fluorescence ratio turned out to be 1.
Turning to GATGGGGACC, the switch fluorescence ratio is 1.03.
Next, AGATTGATGA: 1.02; CGCGCCAATT: 1.12; CCATGCCATT: 0.998.
Next, GGCACGCAAC: 1.83; CATTGTACGA: 0.997.
CGCGGAATGG: the switch fluorescence ratio worked out at 1.06.
For GTACTAGGGT the value was 1; for GATTTCAGC, 0.998; for TACGCAAAGC, 2.25.
For TGTACAAGGT the value was 1.01.
CCTTTTGCCG: the switch fluorescence ratio was 1.13.
Next, GCCTACCTG: 0.985; GGAAGAAGAG: 0.956.
As to CGGTGGAGGA, the switch fluorescence ratio was 1.
Next, GTTAGATCAT: 0.969; ACCAGGTGCG: 3.18; CTAGGAATGC: 2.93.
Next, GAGTGGTTAT: 1.01; TCGTCAGTA: 1.01; GCCGTCATCG: 1.02.
As for TATCCGTAGC, the switch fluorescence ratio was determined as 3.05.
As for GCACGACAGT, the switch fluorescence ratio is 1.03.
For TTCATAGCTA the value was 0.995; for AAGTGCGCCA, 0.977.
For TATGCTACAA the value was 1; for CTAATGTACT, 1.1.
For the sequence CGTGGAAAG, the switch fluorescence ratio was determined as 1.
Take ACAGAATGCT: the switch fluorescence ratio amounted to 1.
With TCAGCGCGAT, the switch fluorescence ratio was 1.51.
For GAGCTTCGGA the value was 0.963.
With TATCCATGCT, the switch fluorescence ratio came to 1.03.
For TGGGGAGGCC the value was 1.15; for CACACATAAT, 1.02; for CTAGTCGT, 0.974.
Next, TCATCTTGCA: 1.04.
For GTGTAA the value was 0.943.
On to TTCAGTTTGC, for which the switch fluorescence ratio came to 1.02.
Next, GGAGCGCGAT: 1.04; TTGTGGGCCT: 1.03.
Next, CTAGCTGGAC: 1.72.
GGTCAGTCGG: the switch fluorescence ratio came to 0.993.
For the sequence AGCCTAGGTA, the switch fluorescence ratio was 0.988.
Turning to TTATTTTCCC, the switch fluorescence ratio was 1.03.
For ACTCTTAGCA the value was 1.19; for AACCTCGCGC, 1.95.
For TCTTTAGTTC the value was 1.15; for TTGCAAGGTC, 1.07; for TTCGGTGACG, 1.03.
For CGTGCTGTCC the value was 0.929; for TACCACGAAA, 1.12.
Regarding TCATGCCATC, the switch fluorescence ratio was found to be 0.986.
As for TCCCAACGTA, the switch fluorescence ratio came out at 1.08.
Turning to TTAGGGAACC, the switch fluorescence ratio stood at 1.01.
For ACTAAGAGAA the value was 0.98; for TATGTTACCG, 1.08.
As to GCGCCTAGTA, the switch fluorescence ratio amounted to 0.992.
With GATCTTGGCG, the switch fluorescence ratio was 0.967.
Next, ACATCAGATA: 1.06; TCAATTGTCG: 0.958.
Next, GTTTACGACG: 1.01.
As to CGATCTATTT, the switch fluorescence ratio came out at 1.
Next, AACCGGGAT: 1.02; TTTAGGATAT: 1.04.
Next, AGAGGCATGT: 0.966; CATCTACAT: 1.06; GATCATTCTC: 0.986.
Next, GACTACAAAT: 1.06; GACCGCGTTT: 1.03.
As for AGTTGCAAGA, the switch fluorescence ratio stood at 1.05.
Next, GAGTCTCGAG: 0.985; CCAACTTGGG: 1.02; TATGGGTCAC: 1.
Next, TCCGGGAGGC: 1.32.
As to AGTCGATACC, the switch fluorescence ratio was 1.11.
For the sequence AACAGGTTGG, the switch fluorescence ratio is 1.01.
For TTCGTATGAG the value was 1.05; for AATATCGCCT, 1.01.
Regarding GCACCCGAT, the switch fluorescence ratio is 1.02.
Next, AGTAACGTT: 0.972.
For CATGTATGAT the value was 1.03; for GAAATGAGCG, 1.02; for CTCGGCGAAG, 1.07.
For GGGTATTCGA the value was 0.978; for CTCGATTTGC, 1.04.
On to ATTTGCAGTA, for which the switch fluorescence ratio turned out to be 1.04.
For TTAGGGGTCA the value was 1; for CTGACCAGTC, 1.2.
For AGCTAAAATT, the switch fluorescence ratio was found to be 0.997.
For ATTAGGTAGG the value was 1; for AAAGTTGGAC, 1.03; for AGCGTACTGT, 1.14.
For TCGAGTCCGG the value was 1.03; for GGACCGATGA, 1.07.

The values above are taken from the supplement of paper PMC10126150.
